Assay results as given in paper PMC4336329 (PLoS ONE, 2015).
Out of some 310,000 compounds screened, about 2,200 (0.71%) showed an effect of 50% or more. The effect is printed as a negative number. This is one part of the list.

These compounds were tested against human ether-à-go-go-related gene (hERG) potassium channel (human, UniProt Q12809) (assay: primary screen, population patch clamp on CHO cells stably expressing hERG).
human ether-à-go-go-related gene (hERG) potassium channel, sequence (Q12809 whole entry, looked up): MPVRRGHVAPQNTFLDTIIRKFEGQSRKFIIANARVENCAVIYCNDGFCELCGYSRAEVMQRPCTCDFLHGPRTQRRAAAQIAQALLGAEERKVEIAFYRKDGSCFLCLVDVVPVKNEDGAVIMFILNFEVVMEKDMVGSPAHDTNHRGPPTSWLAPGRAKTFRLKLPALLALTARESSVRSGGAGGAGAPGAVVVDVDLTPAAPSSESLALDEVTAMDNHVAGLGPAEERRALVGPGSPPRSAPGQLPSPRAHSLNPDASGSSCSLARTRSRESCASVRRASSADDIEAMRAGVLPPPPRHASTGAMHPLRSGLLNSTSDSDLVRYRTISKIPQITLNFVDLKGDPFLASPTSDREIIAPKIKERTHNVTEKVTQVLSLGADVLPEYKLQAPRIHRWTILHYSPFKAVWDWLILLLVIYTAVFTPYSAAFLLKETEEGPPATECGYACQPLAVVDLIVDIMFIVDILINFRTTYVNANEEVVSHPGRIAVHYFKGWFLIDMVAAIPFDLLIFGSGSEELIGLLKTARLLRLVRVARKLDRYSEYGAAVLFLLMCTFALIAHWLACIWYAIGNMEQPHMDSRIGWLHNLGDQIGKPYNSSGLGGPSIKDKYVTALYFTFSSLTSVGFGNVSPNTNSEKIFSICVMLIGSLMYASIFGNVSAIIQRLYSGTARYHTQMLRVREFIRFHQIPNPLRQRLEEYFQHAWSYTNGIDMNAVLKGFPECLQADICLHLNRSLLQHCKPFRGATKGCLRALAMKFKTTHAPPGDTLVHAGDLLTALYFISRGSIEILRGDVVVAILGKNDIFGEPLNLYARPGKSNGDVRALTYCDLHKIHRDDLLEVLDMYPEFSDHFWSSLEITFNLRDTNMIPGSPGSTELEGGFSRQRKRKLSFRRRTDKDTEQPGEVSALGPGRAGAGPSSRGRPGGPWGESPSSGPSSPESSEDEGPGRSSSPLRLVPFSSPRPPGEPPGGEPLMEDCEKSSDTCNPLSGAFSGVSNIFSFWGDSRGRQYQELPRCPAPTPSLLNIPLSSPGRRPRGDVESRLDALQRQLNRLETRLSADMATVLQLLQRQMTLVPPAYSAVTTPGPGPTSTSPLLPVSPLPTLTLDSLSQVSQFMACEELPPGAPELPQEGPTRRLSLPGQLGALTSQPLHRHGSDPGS

| SMILES | hERG current change (%, negative = inhibition) at 1uM |
| --- | --- |
| CCN(CC)C(=O)C1CCCN(c2ccc([N+](=O)[O-])cc2/C=N/NC(=O)c2ccc([N+](=O)[O-])cc2)C1 (stereo not drawn) | 2.1% |
| O=C(NNC1=NS(=O)(=O)c2ccccc21)c1ccc(Cl)cc1 | 4.24% |
| O=C(COC(=O)C1CCN(S(=O)(=O)c2ccc3c(c2)OCCO3)CC1)NC1CCS(=O)(=O)C1 (stereo not drawn) | 3.6% |
| Cc1cc(NC(=O)COC(=O)c2c(C)nn(Cc3ccccc3)c2Cl)no1 | 3.78% |
| COCC(=O)Nc1cc(Cl)ccc1C | 8.21% |
| CN1CCN(c2ccccc2NS(=O)(=O)c2ccc3c(c2)CCN3C(=O)C2CCC2)CC1 | 6.36% |
| COc1ccc(C(=O)N2CCC3(CC2)NCCc2[nH]cnc23)cc1 | 12.4% |
| COc1cccc(C(=O)NC2CCSC2=O)c1 (stereo not drawn) | 15.2% |
| O=C(c1cc(Br)ccc1Cl)N1CCCC1 | 10.6% |
| Cc1onc(-c2ccccc2)c1C(=O)N1CCN(c2ccccc2F)CC1 | 11.9% |
| COc1ccc(NC(=O)Cn2nnc(-c3ccccc3F)n2)cc1Cl | 13.6% |
| COC(=O)c1ccc(CN2CCCC(CNC(=O)Cc3ccc(OC)cc3)C2)cc1 (stereo not drawn) | 6.39% |
| COc1ccccc1/C=C/C=N/NC(=O)c1cc(-c2ccco2)[nH]n1 | 6.15% |
| O=c1[nH]c(=S)[nH]c(O)c1N=Nc1cc2c(cc1[N+](=O)[O-])OCO2 | 7.82% |
| CC(=O)c1cccc(NC(=O)C2C3C=CC(C3=C(c3ccccc3)c3ccccc3)C2C(=O)O)c1 (stereo not drawn) | 1.89% |
| O=C(Nc1ccc(Cl)c(C(=O)N2CCOCC2)c1)c1ccccc1 | -3.54% |
| C=C1CCN([C@@H](Cc2ccccc2)C(=O)Nc2ccc(OC)cc2)S(=O)(=O)c2ccccc21 | 11.6% |
| COc1ccc(/C=N/NC(=O)CNc2ccc(Br)cc2)c(C(=O)O)c1OC | 6.6% |
| CN(C)C(=O)Oc1ccc(OCc2n(C)c3ccccc3[n+]2C)cc1.[Cl-] | 2.84% |
| Cc1ccc(-c2nnn(CC(=O)N(CCO)C(C(=O)NC(C)(C)C)c3ccncc3)n2)cc1 (stereo not drawn) | 8.43% |
| CCOC(=O)c1c(C)[nH]c(C)c1C(=O)COC(=O)c1c(OC)cccc1OC | 11.1% |
| O=C(/C=C/c1ccco1)N1CCC(Cc2ccccc2)CC1 | 2.46% |
| NC(=O)CC(NC(=O)c1ccccc1)c1ccc(N2CCC(N3CCCC3)CC2)c([N+](=O)[O-])c1 (stereo not drawn) | 10.5% |
| N#CC1=C(N)C(C#N)(C#N)[C@H](c2ccncc2)[C@H]2CN(C(=O)OCc3ccccc3)CC=C12 | 2.86% |
| CCOc1ccc(NS(=O)(=O)c2ccc3[nH]c(=O)[nH]c3c2)cc1 | 24.2% |
| Cc1ccc(/C=N/NC(=O)c2ccc3nc[nH]c3c2)s1 | 9.64% |
| CN(C)c1ccc(NC(=O)CCN2C(=O)c3cccc([N+](=O)[O-])c3C2=O)cc1 | 7.72% |

| SMILES | hERG current change (%, negative = inhibition) at 1uM |
| --- | --- |
| O=C(CNC(=O)c1ccccc1F)NCC(c1cccs1)N1CCOCC1 (stereo not drawn) | 3.5% |
| CCN1CCN(Cc2c(O)ccc3c2O/C(=C\c2ccc(C)cc2)C3=O)CC1 | 1.33% |
| CC1(C)CC(=O)C(C=NCCN2CCOCC2)=C(O)C1 | 11.7% |
| COc1ccc(C2=NN(CCC(=O)NCC3CCCO3)C(=O)CC2)cc1 (stereo not drawn) | 15.2% |
| CCC(C)(C(=O)NC1CCCC1)N(C(C)=O)c1ccc(C)cc1 (stereo not drawn) | -2.27% |
| COc1ccccc1C1CCN(Cc2cccc([N+](=O)[O-])c2)CC1 | -15% |
| Cc1sc(NC(=O)c2ccccc2)c(C(=O)NC(C)C)c1C | 8.36% |
| C=CCOc1ccc(/C=C\c2nc(O)c([N+](=O)[O-])c(=O)[nH]2)cc1OCC | 18.5% |
| O=C(C=C1NCCN1)c1ccccc1 | 16.2% |
| CCc1nnc(NS(=O)(=O)c2ccc(NC(=O)c3ccccc3)cc2)s1 | 10.4% |
| CC(C)(C)c1ccc(S(=O)(=O)Nc2ccc(C(=O)N3CCCC3)cc2)cc1 | -4.4% |
| CC(C)(C)c1ccc(NC(=O)COC(=O)c2ccc(CN3CCCC3=O)cc2)cc1 | 1.8% |
| Cc1ccc(NC(=O)C(=O)c2ccc(C)cc2)cc1 | 13.5% |
| COC(=O)COc1cccc2c(=O)n(CC(=O)N3CCCCC3)ccc12 | 3.87% |
| C=CCN1C(=O)/C(=C/c2cccs2)C(=O)NC1=S | 9.76% |
| C#CCOCCOCCOCCNc1nc(N2CCN(C(=O)[C@H](CCCCN)n3cc([C@@H](N)C(C)CC)nn3)CC2)nc(N2CCN(C(=O)[C@H](Cc3ccc(O)cc3)n3cc([C@@H](N)C(C)CC)nn3)CC2)n1.Cl (stereo partly drawn) | 11.5% |
| CC(=O)Nc1ccc(S(=O)(=O)NCCSCc2cccc(Cl)c2)cc1 | 11.2% |
| N#Cc1ccc(OCC(=O)N2CCN(S(=O)(=O)c3ccc(Cl)s3)CC2)cc1 | -22.7% |
| COc1ccccc1-n1ccnc1SCC(=O)NC1CCCC1 | 15.1% |
| O=c1cc(N2CCc3ccccc32)[nH]c(=O)n1-c1ccccc1Cl | 16.6% |
| COC(=O)C1=C(CN2CCSCC2)NC(=O)NC1c1cc(C)ccc1C (stereo not drawn) | 1.86% |
| Cc1cccc(C)c1NC(=O)N1CCC(C(=O)c2ccc(F)cc2)CC1 | -17% |
| CCOC(=O)C(C)On1c(SC(C)C(=O)OCC)nc2ccccc2c1=O (stereo not drawn) | -22% |
| O=C(Cc1cccs1)NNC(=S)NC(=O)c1ccco1 | 15.7% |
| CCN(CC(=O)NCc1ccc(F)cc1)C(=O)/C=C/c1ccc(OC)cc1 | -3.96% |
| COc1ccc(Cc2nc(-c3ccc(-n4cccc4)cc3)no2)cc1 | 6.19% |
| CCn1cc(C(=O)N2CC=C(c3ccccc3)CC2)c(=O)c2ccc(C)nc21 | -0.904% |
